About 120 (0.25%) of roughly 48,000 compounds were called active. Roughly 4% stayed inconclusive and do not appear here. The call rests on the fitted dose curve; in most records, active means well fitted activation curve with a large enough effect; inconclusive means small, poorly fitted or top-dose-only effect, or another doubt; inactive means no such curve, though single readings can be large or run the other way. This is one part of the list.
assay: Primary qHTS for Identification of Small Molecule Activators of Huntingtin-Antisense Promoter Activity; settings: HEK293 HTT-AS promoter firefly luciferase reporter, 24 h; series mostly up to 57.5 µM; activity change, positive = activation: at the top concentration; further: nearly all actives have a fitted effect of over 55% in size
Outline: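 Firefly luciferase readout (Dual-Glo, 10 min RT) after 24 h, 37 °C compound exposure (final up to 57.5 uM) of HEK293 reporter cells cultured 24 h beforehand; PTC124 at 50 uM final as control inhibitor; activity scaled vehicle 0%, zero RLU -100%.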

Activity change, positive = activation, inactive:
CCOC(=O)c1ccc(CN(Cc2ccc(Cl)cc2Cl)S(=O)(=O)c2cccc(Cl)c2)cc1 -19.4%
Cc1cc(-c2ccc(C)c(S(=O)(=O)N(C(C)C)C3CCCCC3)c2)on1 -19.8%
CCn1c(=O)c2c(nc(C=Cc3ccc(OC)c(OC)c3)n2C)n(CC)c1=O -6.66%
CC1(C)O[C@H]2[C@@H](O1)[C@@H](C(=O)Nc1cc(F)ccc1F)O[C@@H]1OC(C)(C)O[C@@H]12 -6.82%
COc1cc2c(cc1OC)C(C(C(=O)N(CCc1ccc(OC)c(OC)c1OC)CCc1ccc(OC)c(OC)c1OC)c1ccccc1)=NCC2 (stereo not given) -17%
Cc1ccc2nc(N(Cc3cccnc3)C(=O)CCc3ccccc3)sc2c1 2.81%
Cc1cccc(-c2cc(C(=O)O)c3c(-c4ccc(F)cc4)[nH]nc3n2)c1 -4.79%
CNC(=O)c1ccc(N2C(=S)N(c3ccc(C#N)c(C(F)(F)F)c3)C(=O)C2(C)C)cc1F -19.6%
COc1ccc(-c2nc3n(n2)C(c2cccc(C)c2)C(C(N)=O)=C(C)N3)cc1OC (stereo not given) -0.877%
O=C(CCBr)N1CCN(C(=O)CCBr)CC1 2.16%
CCOC(=O)C(C)Nc1ncnc2onc(C)c12 (stereo not given) -15.5%
COc1cc(NC(=O)CCCN2C(=O)CCn3nc(-c4cn(C)c5ccccc45)cc32)cc(OC)c1 -12.7%
O=C(c1cnc(N2CCCCC2)c2ccccc12)N1CCN(c2ccc(F)cc2)CC1 -23.1%
Fc1ccc(Nc2nc(-c3ccc(F)cc3)c3c(n2)-c2ccccc2OC3)cc1 -5.75%
COc1cccc(C(=O)Nc2ccc3nc(SCC(=O)N4CCc5ccccc54)sc3c2)c1 4.24%
Cc1sc2c(c1C)c(=O)n(-c1ccc(Cl)cc1)c(=O)n2CC(=O)c1ccccc1 16.2%
Cc1c(NC(=O)c2ccc(-c3ccc(F)cc3)o2)cccc1-c1nc2ncccc2o1 -11.3%
COc1cccc(CNC(=O)c2ccc3c(c2)sc2nc(-c4ccccc4)cn23)c1OC 10.1%
CCOc1ccccc1CNC(=O)c1cc2oc3ccccc3c2n1CC -38.5%
O=c1[nH]c2ccc(S(=O)(=O)Nc3cc(Cl)ccc3O)cc2o1 -23.9%
Cc1ccc(-c2nc3scc(CCNS(=O)(=O)c4c(C)noc4C)n3n2)cc1 -23.7%
NS(=O)(=O)c1ccc(CCNC(=O)CCn2c(=O)c3cccn3c3cccnc32)cc1 -4.05%
Cc1cc(F)ccc1NC(=O)CN1C(=O)CCc2cc(S(=O)(=O)N3CCOCC3)ccc21 -3.51%
CCOc1cc2ncc(C#N)c(Nc3ccc(OCc4ccccn4)c(Cl)c3)c2cc1NC(=O)C=CCN(C)C -24.4%
COc1cc2nc(N3CCN(C(=O)C4COc5ccccc5O4)CC3)nc(N)c2cc1OC (stereo not given)
Cc1cc(Br)ccc1NC(=O)C(NS(=O)(=O)c1cccs1)c1ccccc1 (stereo not given) -24.7%
COc1ccc(Cl)cc1NC(=O)c1cc2nc(-c3ccc(C)cc3)cc(C(F)(F)F)n2n1 -6.96% [at 11.5 µM, percent change from vehicle, -100% = no light]
COc1ccc2c(CNCCc3ccccc3OC)c(C(=O)O)n(Cc3ccc(F)cc3Cl)c2c1 -60.7%
CSc1cccc(NC(=O)N2CCN(S(=O)(=O)c3ccc4c(ccn4C)c3)CC2)c1 -23.6%
O=C(CSc1nc(-c2ccccc2)no1)N1CCN(c2ccc(F)cc2)CC1 0.942%
COc1ccc(C2=NS(=O)(=O)N(C)C(C(=O)NC(C)c3ccccc3)=C2)cc1OC (stereo not given) -16.6%
CC1=C(C(=O)OC2CCCC2)C(c2ccc(Cl)cc2)CC(=O)N1 (stereo not given) -25.1%
Cc1cc(C)cc(NC(=O)CN(c2cccc(C)c2C)S(=O)(=O)c2ccccc2)c1 -13.5%
COc1cccc(N2C(=O)CSC23C(=O)N(Cc2ccccc2F)c2ccccc23)c1 (stereo not given) -25.9%
CCC(=O)N1CCc2cc(Br)cc(S(=O)(=O)N3CCN(c4cccc(Cl)c4)CC3)c21 -15.3%
O=C(OCC1CCCO1)c1ccc2c(c1)N(Cc1cccc(F)c1)C(=O)c1ccccc1S2(=O)=O (stereo not given) -9.59%
Cc1nc2c(-c3ccc(F)cc3)c(C)nn2c(C)c1CCC(=O)NCc1cccc(Cl)c1 0.91%
CCOc1cccc(C2c3[nH]c4ccccc4c3CCN2C(=O)Cc2cccc(OCC)c2OCC)c1 (stereo not given) -22.4%
CC1CCc2nc(NC(=O)Cc3ccc(Cl)cc3)sc2C1 (stereo not given) 22.8%
Cc1cc2c(cc1S(=O)(=O)CCC(=O)N(C)Cc1ccccc1)OCC(=O)N2 -5.04%
Cc1cccc(NC(=O)CSc2nc(C)c(Cc3ccccc3)c(=O)[nH]2)c1C -5.45%
FC(F)(F)c1ccc(Nc2nc3ccc(Oc4ccnc(-c5ncc(C(F)(F)F)[nH]5)c4)cc3[nH]2)cc1 -33.8%
Cc1ccc(CNC(=O)c2cc(Sc3ccc(F)cc3F)nc3ccccc23)cc1 -8.22%
CCC(C(=O)N(C)Cc1ccccc1)n1nc(C)c2sc3ccccc3c2c1=O (stereo not given) -41.4%
COc1ccc(CNC(=O)CCc2c(C)nn(-c3ccc(N4CCOCC4)nn3)c2C)cc1 -7.87%
COc1ccc(CCNC(=O)C2=C(C)C(=O)OC23CCCCC3)c(OC)c1 -14.9%
CC(=O)N1CCCC1c1nc2ccccc2n1Cc1cc(C)ccc1C (stereo not given) -24.7%
CCOC(=O)N1CCN(S(=O)(=O)N2CCCC(C(=O)NCc3ccccc3OC)C2)CC1 (stereo not given) -21.6%
Cc1ccc2ccc3cc(C(=O)Nc4ccc(C)c(F)c4)nc3c2[nH]1 -9.43%
CCOC(=O)c1ccc(CN(Cc2ccc(F)cc2)S(=O)(=O)c2cc(C(=O)Nc3ccccc3CC)ccc2F)cc1 -32.5%
COc1ccc(NC(=O)C2CCCN(S(=O)(=O)c3ccc4[nH]c(=O)ccc4c3)C2)cc1OC (stereo not given) -4.59%
CCOc1ccc(NC(=O)CCc2c(C)nc3c(c(C)nn3-c3ccccc3)c2C)cc1 1.06%
CC1CN(c2cc3c(cc2F)c(=O)c(C(=O)O)cn3-c2ccc(F)cc2F)CCN1 (stereo not given) -7.55% [at 6 µM, percent change from vehicle, -100% = no light]
CCOc1ccc(NC(=O)CC2C(=O)N(c3cccc(C)c3)C(=O)N2CCC2=CCCCC2)cc1 (stereo not given) -55.4%
Cc1ccc(S(=O)(=O)n2nc(C)c(S(=O)(=O)N3CCCCC3)c2C)cc1 -9.91%
CCc1ccc(CN(Cc2ccco2)C(=O)c2ccc(C)cc2)cc1 -16.8%
CC(=O)Nc1ccccc1-c1nc2ccccc2n(C(C)C(=O)Nc2cccc(C)c2C)c1=O (stereo not given) -24.5%
O=C(Nc1ccccc1)N(Cc1cccs1)c1ccc(Cl)cc1 -15%
Cc1ccc(-n2c(=O)[nH]c3sc4c(c3c2=O)CCCC4)cc1 -2.2%
CC(=O)N(Cc1cccnc1)c1nc2cc(C)cc(C)c2s1 -4.09%
COc1cc(OC)c(NC(=O)CN(C)S(=O)(=O)c2ccc3c(c2)CCCC(=O)N3)cc1Cl -35.9%
CCc1ccc(C(=O)c2cn(CC(=O)Nc3cccc(C)c3C)c3nc(C)ccc3c2=O)cc1 -15.2%
COc1ccc(Cl)cc1NC(=O)CN1C(=O)CSc2ccc(S(=O)(=O)N3CCCC3)cc21 -36.2%
COc1ccccc1C(=O)N(Cc1ccco1)Cc1ccccc1F -32.4%
Cc1ccccc1C(=O)N1CCCCC1CCN1CCCCC1 (stereo not given) -2.26%
COc1ccc(N2CCN(C(=O)CCc3c(C)nc4cc(-c5cccc(F)c5)nn4c3C)CC2)cc1 -63.1%
CC(=O)N1CCc2c(sc3c2c(=O)n(-c2ccccc2)c(=O)n3Cc2cccc(C(F)(F)F)c2)C1 -37.4%
CCOC(=O)c1cnc2c(ccc3ccccc32)c1Nc1ccc(OC)cc1OC -23.9%
COc1cccc(N=C2SC(C(=O)Nc3cccc(Cl)c3)CC(=O)N2C)c1 (stereo not given) -27.3%
CSc1ncc(C(=O)N2CCN(c3ccc(Cl)cc3)CC2)c(C)n1 -16.5%
CCc1nn(CC(=O)NCCCN2CCN(C)CC2)c(=O)c2cc3occc3n12 -3.71%
COc1ccc(C(=O)c2c(N)c(-c3nc(-c4ccccc4)cs3)c3ccccn23)cc1 3.19%
COc1ccc(C)cc1NC(=O)c1oc2ccc(S(=O)(=O)N3CCOCC3)cc2c1C 2.96%
COC(=O)c1c(NC(=O)COc2ccc(Cl)cc2C)sc2c1CCCCC2 -17.8%
COc1ccc(OC)c(NC(=O)CSC2=Nc3ccccc3C3=NC(CCC(=O)NC4CCCCC4)C(=O)N23)c1 (stereo not given) -14.5%
Cc1cccc(N2CCN(C(=O)CCCn3ncn4c(cc5occc54)c3=O)CC2)c1C -30.2%
CCOc1cc(CNCCSc2nnnn2C)cc(Cl)c1OCc1ccc(Cl)cc1 -54.1%
O=C(NCC(c1cccnc1)N1CCc2ccccc2C1)C(=O)Nc1cccc(Cl)c1 (stereo not given) -18.7%
O=C(Cc1ccc(F)cc1)Nc1cccc(-c2nc3cccnc3s2)c1 2.6%
COc1ccc(-c2cc(C(=O)NCCc3ccccc3)c3c(-c4ccccc4)[nH]nc3n2)cc1 -0.501%
Cc1ccc(CCNS(=O)(=O)c2ccc3c(c2)CCN3C(=O)CCC(=O)O)cc1 1.23%
CCc1ccc(NC(=O)CCc2c(C)n(C)c3cc(-c4ccccc4C)nn3c2=O)cc1 -2.29%
COc1cc(C2CC(=O)N(CC(=O)Nc3ccccc3F)c3ccccc3S2)cc(OC)c1OC (stereo not given) -36.1%
Cc1ccc(CCNC(=O)c2ccc(CSc3nc4ccncc4n3Cc3ccc(F)cc3)cc2)cc1 -17.9%
Cc1ccc(-n2nc(CO)c(C(=O)NC(C)c3ccccc3)n2)cc1C (stereo not given) -33.5%
COC(=O)c1sc2ccccc2c1S(=O)(=O)N1CCN(c2ccc(C(C)=O)cc2)CC1 -21.4%
COC(=O)c1ccccc1NC(=O)CCc1c(C)nc2cc(-c3ccc(Cl)cc3)nn2c1C -74.7%
CC(=O)c1cc(-c2ccc(F)cc2)n(CCC(=O)NC2CCCCC2)c1C -21.2%
CC(C)CNc1cc(NC2CCCCC2)c2c3c(onc13)-c1ccccc1C2=O -22%
Cc1ccc(Cl)cc1N1CCN(C(=O)c2cn(C)c3ccc(S(=O)(=O)N4CCCCC4)cc3c2=O)CC1 -4.16% [at 11.5 µM, percent change from vehicle, -100% = no light]
